The source of these data is ChEMBL document CHEMBL4888484, “Replenishing the malaria drug discovery pipeline: Screening and hit evaluation of the MMV Hit Generation Library 1 (HGL1) against asexual blood stage Plasmodium falciparum ,using a nano luciferase reporter read-out” (2022).

Hit rate of the full screen: of about 150,000 compounds, about 540 (0.36%) showed an effect of 50% or more. The list shows a part of the results.

In this test the test system is Plasmodium falciparum. Nature of the test: Primary screen in NF54 nanoGlo assay, in single point, at 2uM, 72h; a lower Z score goes with more inhibition. The class given is functional, Erythrocyte. As to conditions: timepoint 72 hour.
Usually % Inhibition stands for the drop in the measured response relative to a control, in per cent. As to `CN1C(=O)NCC12CCN(C(=O)Nc1cccc3ccsc13)CC2`, the “% Inhibition” value was -14% and the Z score is listed as 1.91.

In the case of `CCC[C@H]1CN(C(=O)c2cc(=O)[nH]c3cc(F)ccc23)C[C@@H]1N`, the “% Inhibition” value was -9% and the Z score was 1.79.

Consider `O[C@@H](CNC1CC(c2ccc(Cl)cc2)C1)c1ccco1` (stereo partly drawn), for which the “% Inhibition” value was determined as 10% and the Z score was -1.05.

With `CCCc1noc(CN2C[C@@H](C(N)=O)c3ccccc32)n1`, the “% Inhibition” value was -15% and the Z score is on record as 1.3.

Turning to `CCN1C[C@H](CN(C)C(=O)c2cnccn2)Oc2ccccc21`, the “% Inhibition” value is recorded as -9% and the Z score stood at 1.37.

Turning to `CC1(C(=O)N2CCC[C@@]3(CCS(=O)(=O)C3)C2)COC1`, the “% Inhibition” value is listed as -25% and the Z score turned out to be 2.66.

For `CCc1nc(Cn2nc(-c3ccccc3)ccc2=O)no1`, the “% Inhibition” value is reported as -11% and the Z score is recorded as 1.59.

For the compound `COc1ccc([C@H]2CC(=O)Nc3c2cnn3Cc2ccco2)c(OC)c1`, the “% Inhibition” value turned out to be 17% and the Z score is -2.17.

Regarding `COc1cccc(Cc2nc(-c3ccc(S(=O)(=O)N4CCOCC4)cc3)no2)c1`, the “% Inhibition” value is -1% and the Z score turned out to be 0.21.

As for `O=C(Nc1cnc(N2CCCCCC2)nc1)c1ccccc1Br`, the “% Inhibition” value is listed as -24% and the Z score is recorded as 2.14.

As for `COC(=O)C1(CNC(=O)c2cc(F)ccc2O)CCOCC1`, the “% Inhibition” value is listed as -4% and the Z score is on record as 0.71.

As for `CC1(C)Nc2ccccc2-c2nnnn21`, the “% Inhibition” value is -10% and the Z score turned out to be 1.32.

For `CO[C@@H](CS(=O)(=O)Nc1ccc(C(=O)O)cc1F)C1CCCC1`, the “% Inhibition” value is 3% and the Z score is on record as -0.31.

On to `CC(C)c1nc(CN2C(=O)N[C@@](C)(c3cnn(C)c3)C2=O)no1`, for which the “% Inhibition” value came to 2% and the Z score is listed as -0.3.

As for `O=C(c1ccsc1)N1CCc2n[nH]c(=O)n2CC1`, the “% Inhibition” value came out at 7% and the Z score was -1.32.

For `CC(NS(C)(=O)=O)c1nc(C(C)C2CC2)no1` (stereo not drawn), the “% Inhibition” value is listed as 2% and the Z score is -0.4.

Turning to `Cc1cc([C@@H]2CCCN2S(=O)(=O)c2cc(F)c(F)cc2F)on1`, the “% Inhibition” value came to 4% and the Z score is recorded as -0.68.

For the compound `O=C(OCCNc1ncccn1)c1nccc2ccccc12`, the “% Inhibition” value is -6% and the Z score is 0.65.

Take `O=S(=O)(N1CCCCC1)N1CCO[C@H](c2ccc(F)cc2)C1`: the “% Inhibition” value is reported as -3% and the Z score is on record as 0.56.

With `CCCc1nc(C(=O)N(CCO)Cc2nccs2)cs1`, the “% Inhibition” value is recorded as -4% and the Z score stood at 0.63.

`O=C1CC(C2CCCCN2C(=O)NCCC2CC3CCC2C3)CN1` (stereo not drawn): the “% Inhibition” value worked out at 26% and the Z score is -2.98.

Turning to `C[C@@H](CN1CCCCCC1)NCCc1nccs1`, the “% Inhibition” value is listed as -6% and the Z score stood at 1.07.

As to `Cc1nn(-c2ccc(C(C)(C)C)cc2)c(C)c1[C@@H]1C=C[C@@H](NC(=O)NCc2ccccc2)C1`, the “% Inhibition” value was 30% and the Z score was -3.34.

Consider `OCc1ccnc(N2CCC[C@@]3(C=Cc4ccccc4O3)C2)n1`, for which the “% Inhibition” value was -6% and the Z score is listed as 0.83.

Take `O=C(C#Cc1ccccc1)NCc1ccccc1OCCO`: the “% Inhibition” value is on record as 3% and the Z score is -0.45.

In the case of `O=C1CN(C2CCCC2)C(=O)N1Cc1ncc(Cl)cc1Cl`, the “% Inhibition” value is 0% and the Z score is on record as -0.07.

`CC[C@@H](CO)NC(=O)C(=O)Nc1c(C)cccc1C`: the “% Inhibition” value was -8% and the Z score is 1.23.

As to `CCOc1ccc(-c2ccnc3nc(N4CCOCC4)[nH]c(=O)c23)cc1`, the “% Inhibition” value is -4% and the Z score stood at 0.52.

On to `Cc1cccnc1NC(=O)OC(C)(C)C`, for which the “% Inhibition” value is given as 33% and the Z score is -0.97.

In the case of `CC(C)[C@H](NS(=O)(=O)c1cccnc1)c1nccn1C`, the “% Inhibition” value was -8% and the Z score was found to be 0.92.

For `NC(=O)[C@H]1CCCN(Cc2cnc3c(-c4ccccc4)cnn3c2)C1`, the “% Inhibition” value stood at 0% and the Z score is -0.06.

Consider `Cn1nnc2c1CC(C(=O)NCC1CCCCC1NS(C)(=O)=O)CC2` (stereo not drawn), for which the “% Inhibition” value was -2% and the Z score stood at 0.4.

`C1CCC(Nc2nc3nonc3nc2N2CCCCC2)CC1`: the “% Inhibition” value was 32% and the Z score is reported as -4.14.

On to `CCn1ncnc1CNC(=O)c1c(C)coc1C`, for which the “% Inhibition” value is listed as -5% and the Z score was 0.84.

Turning to `Cc1nc(CN(Cc2nccn2C)C2CC2)no1`, the “% Inhibition” value is -6% and the Z score stood at 1.16.

For the compound `Cc1ccc(N[C@@](C)(C(=O)N(C)Cc2nccn2C)c2ccccc2)cc1`, the “% Inhibition” value is listed as 1% and the Z score is given as -0.23.

As for `O=C(O)Cn1nccc1[C@H]1CCCN(Cc2ccc3nsnc3c2)C1`, the “% Inhibition” value is recorded as -10% and the Z score stood at 1.36.

With `CCCc1nc(Cc2ccc(OC)c(OC)c2)no1`, the “% Inhibition” value was -5% and the Z score is listed as 0.72.

Take `CC(C)c1nc(CN2CCC[C@H]2c2nc(-c3ccccc3)n[nH]2)no1`: the “% Inhibition” value is -13% and the Z score was determined as 2.06.

In the case of `CON1C(=O)C(=O)N(OC)C(C)(C)[C@@H]1C`, the “% Inhibition” value amounted to 3% and the Z score was -0.65.

In the case of `Cc1nc(C)c(C)c(NCC(C)(C)N2CCCC2)n1`, the “% Inhibition” value is on record as -1% and the Z score is recorded as 0.13.

Turning to `O=C(NC1CCN(CCO)CC1)N1CCCC[C@@H]1CCc1ccccc1`, the “% Inhibition” value amounted to 6% and the Z score is -0.83.

For `C[C@H]1c2ccsc2CCN1C(=O)c1cc(C2CC2)[nH]n1`, the “% Inhibition” value was -11% and the Z score was 0.97.

`Nc1ccc(N2CCN(c3ncccn3)CC2)cn1`: the “% Inhibition” value was -14% and the Z score came to 1.92.
